# According to the BET-seq Pho4 binding data (Le et al. 2018):
# Some of the results follow. The energies were worked out here from pooled read counts, against the library average; single values are noisy.
# Target: T1, Pho4 (S. cerevisiae) (UniProt P07270)
# T1 sequence: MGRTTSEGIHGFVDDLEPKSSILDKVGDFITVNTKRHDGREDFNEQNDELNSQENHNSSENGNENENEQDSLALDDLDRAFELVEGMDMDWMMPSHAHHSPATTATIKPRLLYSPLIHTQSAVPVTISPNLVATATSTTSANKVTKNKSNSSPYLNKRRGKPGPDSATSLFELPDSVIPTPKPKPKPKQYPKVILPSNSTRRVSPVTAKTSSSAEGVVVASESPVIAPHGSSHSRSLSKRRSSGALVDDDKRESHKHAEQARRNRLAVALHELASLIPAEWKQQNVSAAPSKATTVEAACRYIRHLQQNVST
# Experiment: relative binding free energy (BET-seq); higher = weaker binding
# Conditions: reference: library average
row,Sequence,relative binding free energy [kcal/mol]
1,GTGTTCACGTGATTGG,0.46
2,TTTACCACGTGATTGT,0.12
3,GAGTACACGTGGATGG,0.15
4,TCTTGCACGTGAAGGT,0.28
5,TGGTTCACGTGAGGTT,0.35
6,GAGGGCACGTGGTTAT,-0.04
7,GCTTGCACGTGGGCGT,-0.17
8,GTAGGCACGTGAGAGG,0.27
9,GTCGTCACGTGCGTGG,-0.01
10,TCGGTCACGTGAGTGG,0.26
11,ATTTTCACGTGCGTGT,0.26
12,AGTTTCACGTGATCTT,0.19
13,AGTCTCACGTGGCTTG,0.16
14,TTGTTCACGTGATGAT,0.46
15,TTTCGCACGTGCGTTT,-0.06
16,TGTATCACGTGTTAAG,0.1
17,AGGCGCACGTGTAGTG,-0.07
18,TTGTGCACGTGAGCGT,0.11
19,GCTTTCACGTGGAAAG,0.43
20,TTAGTCACGTGTTGGC,0.06
21,TGTGGCACGTGGCAGC,-0.09
22,CTTAGCACGTGTAGTG,0.02
23,ACTGACACGTGAAGGG,0.39
24,TACTACACGTGAGTGT,0.33
25,ATGGGCACGTGTACGT,-0.01
26,AGTAGCACGTGTGATA,-0.1

row,Sequence,relative binding free energy [kcal/mol]
1,AGTGGCACGTGAGTTT,0.23
2,TCGGCCACGTGGTCGG,-0.09
3,TGTGACACGTGATGGA,0.03
4,CTAGGCACGTGTGTTT,-0.11
5,GATCGCACGTGGTTGG,0.1
6,AGTAACACGTGTGAGG,-0.09
7,TCGGCCACGTGTTGTT,-0.01
8,TGCCGCACGTGGGGAA,-0.1
9,ATAGTCACGTGGCGTC,0.11
10,ACGGGCACGTGGCGTT,-0.28
11,ACTGGCACGTGTGGGA,0.1
12,AGAAGCACGTGTTGGA,-0.06
13,TTTTTCACGTGCTGCT,0.24
14,AGTTTCACGTGGCAGT,0.27
15,AGCGTCACGTGGAAGT,0.08
16,CTTTGCACGTGAAGGT,0.26
17,AGGGTCACGTGTAGGT,0.11
18,AGTTTCACGTGGCTAA,0.27
19,GTAAGCACGTGAGATG,0.16
20,GGGCTCACGTGGTGAA,0.34
21,GGTATCACGTGTGGCT,0.2
22,CTTTTCACGTGGTTTG,0.27
23,TCTGACACGTGAAGGG,0.31
24,TGTTTCACGTGTATGG,0.21
25,TACTACACGTGTGTGG,0.19
26,GGAGTCACGTGATTAA,0.22

row,Sequence,relative binding free energy [kcal/mol]
1,TTTGACACGTGTTGAG,0.07
2,TTTTCCACGTGTTCGG,0.02
3,AGTGTCACGTGCGGTT,0.1
4,TGGTCCACGTGTGGAA,0.06
5,TGGCGCACGTGCAGGG,-0.14
6,TGGAGCACGTGAAGGT,0.16
7,TGTTGCACGTGTGGAT,0.06
8,TTGAGCACGTGGCGGG,-0.13
9,GGTTGCACGTGTCCTG,0.01
10,ACGATCACGTGGGGTA,-0.08
11,AAGGGCACGTGTTAGC,0.03
12,TCATGCACGTGTGTGC,-0.04
13,ATTGACACGTGATAGA,0.08
14,CTTTTCACGTGATTTG,0.38
15,ATAGTCACGTGTTTCT,0.09
16,TAGGGCACGTGTCACG,-0.09
17,TTACACACGTGAAGTG,0.39
18,TCTAGCACGTGTCGTG,0.07
19,ACCAGCACGTGGGGGT,-0.23
20,CTAAGCACGTGTATGT,-0.02
21,ATTTTCACGTGAGTTT,0.32
22,TATCTCACGTGGGTAG,0.01
23,CGGATCACGTGGGGAT,0.14
24,GTCATCACGTGTGGAG,0.21
25,GTTGTCACGTGCGAGG,0
26,AGGGGCACGTGAATGT,0.12

row,Sequence,relative binding free energy [kcal/mol]
1,TGATCCACGTGTGAGG,0.06
2,AGAATCACGTGATGTA,0.24
3,GGGGACACGTGTCGGC,0.11
4,TGGACCACGTGTTGGT,0.1
5,AATGTCACGTGCTGAG,0.25
6,TATTTCACGTGGGGTG,0.18
7,TCTGTCACGTGTTTAG,0.19
8,TGTATCACGTGTTTTA,0.16
9,ATAGGCACGTGGAAGG,-0.1
10,GATGACACGTGCGTGG,0.05
11,TCACGCACGTGGGTTG,-0.29
12,GATGGCACGTGTTGAT,0.04
13,CTATACACGTGAGGGT,0.13
14,TAGGGCACGTGAGTTT,0.15
15,TGGACCACGTGTTTGG,0
16,GTGGCCACGTGAGGGC,0.06
17,TGAGCCACGTGAGTGT,0.12
18,GGTGGCACGTGATGGA,0.03
19,AGTCACACGTGGGGGA,-0.24
20,TGTGTCACGTGGTGCT,-0.05
21,AGGAGCACGTGGAGAG,-0.2
22,TTATGCACGTGTGATT,-0.06
23,TTGTGCACGTGCGTAA,-0.15
24,AAGGACACGTGGGTGA,-0.21
25,CTTTGCACGTGCTTTG,-0.02
26,GGAGACACGTGGTGGA,-0.18

row,Sequence,relative binding free energy [kcal/mol]
1,TAAAACACGTGAAGGT,0.26
2,AAGAGCACGTGTACGG,0.02
3,CGGGGCACGTGTCTTG,-0.15
4,GTAGACACGTGTATTG,0.08
5,TCAATCACGTGTTGAG,0.22
6,GAGAGCACGTGATGTG,0.02
7,AGCAGCACGTGGTTGG,-0.08
8,CTTAGCACGTGAGTTG,0.12
9,GTTTGCACGTGAATTA,0.24
10,TGGCGCACGTGATGGG,0
11,CAGTACACGTGGGGAG,-0.02
12,TAGGTCACGTGAATTT,0.31
13,TTCGGCACGTGTACGG,-0.11
14,GCAAACACGTGTTGGT,0.07
15,TGTAGCACGTGTATCA,-0.03
16,AATATCACGTGAGTTG,0.24
17,CGTAGCACGTGGCGCG,-0.14
18,ATGCACACGTGGGTAT,-0.18
19,AGATTCACGTGGAGTA,0.33
20,AGTATCACGTGTGGAC,0.24
21,TTAGTCACGTGTAGGA,0.16
22,TGGAGCACGTGAATTT,0.16
23,AGGGACACGTGTGGCT,0.07
24,TGTATCACGTGGGAAG,0.01
25,CGAGGCACGTGGGGTT,-0.21
26,TAATGCACGTGTGGCG,0.01

row,Sequence,relative binding free energy [kcal/mol]
1,ACAGTCACGTGGGGGA,-0.2
2,CTTTACACGTGGGTAG,-0.06
3,TTTGTCACGTGACTGT,0.11
4,CGGGACACGTGGTGTG,-0.1
5,TGTAGCACGTGGTGGT,-0.1
6,GTGATCACGTGGTGAG,0.02
7,GTGTCCACGTGAGCTG,0.35
8,GATGTCACGTGCGGGC,0.13
9,GAGAGCACGTGATGGT,0.15
10,TCGGGCACGTGGAGAG,-0.01
11,ATAGTCACGTGGTGAT,-0.04
12,GGGACCACGTGGGTGT,-0.24
13,TGAGTCACGTGAAGTT,0.26
14,GTAATCACGTGTTACT,0.15
15,GTTGGCACGTGTTCGG,-0.03
16,GGCTTCACGTGTGGGA,0.32
17,TTTTGCACGTGGGATG,0.02
18,GAGCGCACGTGGGTTT,-0.17
19,ACGATCACGTGGGGAG,-0.01
20,GGTTTCACGTGGAGGA,0.29
21,GGAAGCACGTGGCATG,-0.25
22,AACGTCACGTGTTGTA,0.11
23,GTTATCACGTGCTGTG,0.1
24,TGTTCCACGTGGGCAG,-0.13
25,AGCTGCACGTGGGGTC,-0.24
26,ATTGGCACGTGACGGT,0.04

row,Sequence,relative binding free energy [kcal/mol]
1,ATCATCACGTGGATGT,-0.02
2,TGCGGCACGTGGTAAA,-0.04
3,TCAGTCACGTGGGGTA,-0.18
4,ATGTGCACGTGTAGGC,-0.1
5,CGTGGCACGTGAGATG,0.13
6,CTGATCACGTGCTGTG,0.19
7,GGGGTCACGTGGATAG,0.05
8,TTGAGCACGTGGCTAT,-0.2
9,TGCGGCACGTGGTGTG,-0.17
10,AGCGTCACGTGTTCGG,-0.06
11,TTAAGCACGTGTTGTT,-0.16
12,AGATGCACGTGAATTA,0.31
13,ATGGCCACGTGGTTTT,-0.2
14,GTTTGCACGTGTTAAG,0.18
15,TGGGTCACGTGAACCG,0.24
16,TAGAGCACGTGGTGAG,-0.09
17,GGTGGCACGTGAGTTT,0.29
18,TTAATCACGTGTCTAT,0.13
19,GCTGACACGTGGGGGA,-0.15
20,CTGTACACGTGGGTGC,0.03
21,TTCGGCACGTGTTTAG,-0.08
22,TAATTCACGTGAATAA,0.45
23,AGTTGCACGTGCGTGA,-0.07
24,TCTTGCACGTGGGAGG,-0.07
25,TCTTTCACGTGGTGTC,0.06
26,TTGTGCACGTGAAAGC,0.16

row,Sequence,relative binding free energy [kcal/mol]
1,GTGGGCACGTGCAGTG,-0.1
2,TGGAGCACGTGAGAAG,0.29
3,CGTCGCACGTGAGGGG,0.15
4,GCTGTCACGTGGATTT,0.18
5,GTAGTCACGTGACTTT,0.26
6,TTTTGCACGTGGAAGG,0.1
7,ACATGCACGTGTATGT,-0.12
8,GTTTTCACGTGGGAGA,0.17
9,AGATGCACGTGAGTAG,0.18
10,TGCAACACGTGGGAGT,0.04
11,GTATTCACGTGCGTTT,0.22
12,GGGCTCACGTGTCGGA,0.29
13,GGGTACACGTGCGTGA,0.06
14,TTGTCCACGTGTTAGT,-0.04
15,TTCGGCACGTGTTCTG,-0.11
16,TGCCTCACGTGGTGTA,0.08
17,AGAATCACGTGGTTGT,0.12
18,GTCTGCACGTGCTGTA,0.13
19,ATCTTCACGTGTAATT,0.25
20,TGAATCACGTGTTAAA,0.33
21,GTTGACACGTGGGAGT,-0.02
22,TGGTCCACGTGTTCTG,0.06
23,CTTTGCACGTGTAAGG,0.14
24,AAGAGCACGTGATTTT,0.02
25,TTTCTCACGTGTGAAT,0.4
26,GGGGGCACGTGACGCA,-0.04

row,Sequence,relative binding free energy [kcal/mol]
1,CGGGTCACGTGAATTG,0.25
2,TGTTTCACGTGATCGA,0.29
3,CGCGTCACGTGGTTAG,0.1
4,GGGAACACGTGCGTGA,0.14
5,TATTGCACGTGTTGCA,-0.08
6,TTGTCCACGTGGAGCT,0.15
7,GGGGTCACGTGTGTCC,0.31
8,CGGGCCACGTGAGGGT,0.13
9,TACTGCACGTGATTGT,0.11
10,TTATACACGTGGGTTG,-0.08
11,TGATTCACGTGGTTTA,0.18
12,GTTCTCACGTGACGTG,0.3
13,GGTCGCACGTGGAGTA,0.03
14,AGACTCACGTGGGTTT,0.09
15,CGTAGCACGTGTTGCG,-0.13
16,ATACTCACGTGTTTAG,0.31
17,ATATTCACGTGTGATT,0.34
18,TTGGTCACGTGCTTTA,0.06
19,GTCATCACGTGGGGTC,0.03
20,CGGTACACGTGTTGAG,0.01
21,TTTCTCACGTGAATGT,0.43
22,GTTGTCACGTGCTTAT,0
